11 molecules from patent US20250163048A1 (Tango Therapeutics, Inc., priority 2022, published 2025) can be followed below.

Where two headings read alike, the source gives them in different places.

The subject of one assay is MTAP-deleted cell line. In words: viability assay for the MTAP-deleted cell line. It is filed as cell-based. The settings on record: Homo sapiens, HAP1, viability assay.
Assay [1] relates to HAP1 MTAP-intact cell line. In words: SDMA in-cell western assay, HAP1 MTAP-intact. The settings on record: Homo sapiens.
Assay [2] relates to HAP1 MTAP-deleted cell line. Nature of the assay: SDMA in-cell western assay, HAP1 MTAP-deleted. The settings on record: for IC50 / IC90: Homo sapiens; for Hap1 MTAP intact/deleted ratio: IC50 ratio between HAP1 MTAP-intact and HAP1 MTAP-deleted cell line.
The mark [3] stands for this setting: HAP1, read-out: Hap1 MTAP intact IC50, SDMA in-cell western, HAP1 MTAP-intact cell line.
Where [4] appears, read: HAP1, read-out: Hap1 MTAP deleted IC50, SDMA in-cell western, HAP1 MTAP-deleted cell line.
The mark [5] stands for this setting: HAP1, read-out: Hap1 MTAP deleted IC90, SDMA in-cell western, HAP1 MTAP-deleted cell line.
[6] abbreviates: HAP1, read-out: Hap1 MTAP intact IC50, SDMA in-cell western assay, HAP1 MTAP-intact cell line.
The mark [7] stands for this setting: HAP1, read-out: Hap1 MTAP deleted IC50, SDMA in-cell western assay, HAP1 MTAP-deleted cell line.

Molecule `C[C@H]1CC[C@H](c2ccc(O)cc2)N(C(=O)C(=O)Nc2cnc(N)c3cn[nH]c23)C1` (racemic) [Compound 229, N-(4-Amino-1H-pyrazolo[4,3-c]pyridin-7-yl)-2-oxo-2-[rac-(2R,5S)-2-(4-hydroxyphenyl)-5-methyl-1-piperidyl]acetamide] came in with an IC50 in the assay with MTAP-deleted cell line of less than 100 nM.
For `C[C@H]1CC[C@H](c2ccc3c(c2)OCC3)N(C(=O)C(=O)Nc2cnc(N)c3c2cnn3C)C1` [Compound 242], the IC50 in the assay on MTAP-deleted cell line is less than 100 nM.
Take `Cc1cc([C@H]2CC[C@H](C)CN2C(=O)C(=O)Nc2cnc(N)c3cn[nH]c23)cs1` [Compound 169]: the IC50 was more than 50 nM in assay [1] (setting [3]), less than 5 nM in assay [2] (setting [4]) and less than 100 nM in the assay with MTAP-deleted cell line. The IC90 in assay [2] (setting [5]) is less than 75 nM. Also, the “Hap1 MTAP intact/deleted ratio” value in assay [2] (SDMA in-cell western) is reported as “B (“B” indicates an IC50 ratio greater than or equal to 15 fold but lower than 30 fold)”.
Regarding `C[C@H]1CC[C@H](c2ccc3c(c2)CCO3)N(C(=O)C(=O)Nc2cnc(N)c3c2cnn3C)C1` [Compound 248], the IC50 in the assay with MTAP-deleted cell line is less than 100 nM.
Regarding `Cc1cc([C@H]2CC[C@H](C)CN2C(=O)C(=O)Nc2cnc(N)c3cn[nH]c23)n(C)n1` (racemic) [Compound 259, N-(4-Amino-1H-pyrazolo[4,3-c]pyridin-7-yl)-2-oxo-2-[rac-(2R,5S)-2-(2,5-dimethylpyrazol-3-yl)-5-methyl-1-piperidyl]acetamide], the IC50 in assay [1] (setting [6]) was more than 50 nM; in assay [2] (setting [7]), less than 5 nM; in the assay with MTAP-deleted cell line, 100 to 1000 nM. Besides, in assay [2] (SDMA in-cell western assay), the “Hap1 MTAP intact/deleted ratio” value is listed as “A (“A” indicates an IC50 ratio greater than or equal to 30 fold)”.
For `C[C@H]1CC[C@H](c2cncc(F)c2)N(C(=O)C(=O)Nc2cnc(N)c3cn[nH]c23)C1` [Compound 243, N-(4-Amino-1H-pyrazolo[4,3-c]pyridin-7-yl)-2-oxo-2-[(2R,5S)-2-(5-fluoro-3-pyridyl)-5-methyl-1-piperidyl]acetamide], the figures for the IC50 (in assay [1] (setting [6]); in assay [2] (setting [7]); in the assay with MTAP-deleted cell line) were more than 50 nM, less than 5 nM and less than 100 nM, respectively. For the same molecule, in assay [2] (HAP1, read-out: Hap1 MTAP deleted IC90, SDMA in-cell western assay, HAP1 MTAP-deleted cell line), the IC90 is less than 75 nM. The “Hap1 MTAP intact/deleted ratio” value in assay [2] (SDMA in-cell western assay) was “A (“A” indicates an IC50 ratio greater than or equal to 30 fold)”.
`C[C@H]1CC[C@H](c2ccc3sc(C4CCN(C)CC4)nc3c2)N(C(=O)C(=O)Nc2cnc(N)c3c2cnn3C)C1` [Compound 252, N-(7-Amino-1-methyl-pyrazolo[3,4-c]pyridin-4-yl)-2-oxo-2-[(2R,5S)-5-methyl-2-[2-(1-methyl-4-piperidyl)-1,3-benzothiazol-5-yl]-1-piperidyl]acetamide] yielded an IC50 in the assay on MTAP-deleted cell line of less than 100 nM.
On to `C[C@H]1CC[C@H](c2ccncc2)N(C(=O)C(=O)Nc2cnc(N)c3cn[nH]c23)C1` [Compound 185, N-(4-amino-1H-pyrazolo[4,3-c]pyridin-7-yl)-2-oxo-2-[(2R,5S)-5-methyl-2-(4-pyridyl)-1-piperidyl]acetamide], for which the IC50 was more than 50 nM in assay [1] (setting [3]) and less than 5 nM in assay [2] (setting [4]). Also, the IC90 in assay [2] (setting [5]) is less than 75 nM. Besides, the “Hap1 MTAP intact/deleted ratio” value in assay [2] (SDMA in-cell western) is “B (“B” indicates an IC50 ratio greater than or equal to 15 fold but lower than 30 fold)”.
Regarding `C[C@H]1CC[C@H](C2CC2)N(C(=O)C(=O)Nc2cnc(N)c3cn[nH]c23)C1` [Compound 277, N-(4-Amino-1H-pyrazolo[4,3-c]pyridin-7-yl)-2-oxo-2-[(2R,5S)-2-cyclopropyl-5-methyl-1-piperidyl]acetamide], the IC50 in assay [1] (HAP1, read-out: Hap1 MTAP intact IC50) was more than 50 nM; with MTAP-deleted cell line it was less than 100 nM.
Regarding `CC(C)n1nccc1[C@@H]1CC[C@H](C)CN1C(=O)C(=O)Nc1cnc(N)c2cn[nH]c12` (stereo in doubt) [Compound 280, N-(4-Amino-1H-pyrazolo[4,3-c]pyridin-7-yl)-2-oxo-2-[rac-(2S,5S)-2-(2-isopropylpyrazol-3-yl)-5-methyl-1-piperidyl]acetamide], the IC50 in assay [1] (setting [6]) was more than 50 nM; in assay [2] (setting [7]), 5 to 50 nM; in the assay with MTAP-deleted cell line, less than 100 nM. Further, in assay [2] (SDMA in-cell western assay), the “Hap1 MTAP intact/deleted ratio” value is recorded as “A (“A” indicates an IC50 ratio greater than or equal to 30 fold)”.
Take `C[C@H]1CC[C@H](c2ccc3sc([C@H]4CCN(C)C[C@@H]4C)nc3c2)N(C(=O)C(=O)Nc2cncc3cn[nH]c23)C1` (relative stereo) [Compound 14, 2-oxo-N-(1H-pyrazolo[4,3-c]pyridin-7-yl)-2-[(2R,5S)-5-methyl-2-[2-[rel-(3R,4S)-1,3-dimethyl-4-piperidyl]-1,3-benzothiazol-5-yl]-1-piperidyl]acetamide]: the IC50 in assay [1] (setting [3]) is 5 to 50 nM; in assay [2] (setting [4]), less than 5 nM; in the assay on MTAP-deleted cell line it was less than 100 nM. In addition, in assay [2] (setting [5]), the IC90 was less than 75 nM. Further, in assay [2] (SDMA in-cell western), the “Hap1 MTAP intact/deleted ratio” value is listed as “B (“B” indicates an IC50 ratio greater than or equal to 15 fold but lower than 30 fold)”.
